Assay results reported in PubChem BioAssay AID588855 (National Center for Advancing Translational Sciences (NCATS), 2011).
Hit rate of the full screen: of about 410,000 compounds, about 5,000 (1.2%) were called active. The shares of active, inactive and inconclusive entries below differ from those in the screen. The call rests on the fitted dose curve; in most records, active means well fitted inhibition curve with a large enough effect; inconclusive means small, poorly fitted or top-dose-only effect; inactive means no such curve, though single readings can be large or run the other way. Where the call is inconclusive, the potency comes from a doubtful curve fit.

experiment: qHTS for Inhibitors of TGF-b; conditions: HepG2 CAGA-GFP TGF-b/SMAD3 reporter, GFP fluorescence, 18 h, TGF-beta stimulated, 500 pg/mL final; series mostly up to 46.1 µM; activity, negative = inhibition: at the top concentration; further: nearly all actives have a fitted effect of over 65% in size
Method in brief: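 Per well, imaged GFP fluorescence of HEPG2 CAGA-GFP cells gives the signal; cells get compound, then TGF-beta (500 pg/mL final), 18 h at 37 degrees C; %Activity versus -TGF-beta and +DMSO controls.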
On the % scale 0 is the no-effect control and ±100 the full control effect; potency means the concentration at half of the fitted maximal effect; tags describe the fitted curve by direction and shape.

Compound	Potency	activity, negative = inhibition
C/C(Cn1nnc([N+](=O)[O-])n1)=N\NC(=O)c1ccc(C)cc1	inconclusive: 25.1 µM [inhibitor, single point]	
Cc1ccccc1Cn1c(C)c(C(=O)NCc2cccc(C(F)(F)F)c2)sc1=O	inconclusive: 35.5 µM [inhibitor, single point]	
CCOC(=O)c1cnc(SCc2cccc(C)c2)nc1N		inactive: -8.28%
COC(=O)N/N=C/c1cc(Cl)cc(Cl)c1OCc1ccc(F)cc1		inactive: -10.6%
O=S(=O)(c1ccccc1)N1CCCC1c1nc2ccccc2s1 (centres undefined)		inactive: -0.96%
CCOc1ccc(NC(=O)c2cccc(-n3cnnn3)c2)cc1	inconclusive: 35.5 µM [inhibitor, single point]	
Cc1ccc2c(c1)[C@H]1[C@H](CO2)[C@H](c2ccccc2)[C@]2(C)C(=O)N(Cc3ccco3)CC(=O)N12	inconclusive: 0.224 µM [inhibitor, full curve, poor fit]	
CC(C)(C)c1ccc(C(=O)NNC(=S)NCc2ccco2)cc1		inactive: -11.4%
COc1ccc(C(CNC(=O)c2cccc(S(=O)(=O)Nc3ccc(F)cc3)c2)N2CCCC2)cc1 (centres undefined)		inactive: -3.61%
O=C(C1CCCCC1)N(Cc1cccnc1)c1nc2ccc(F)cc2s1	inconclusive: 14.1 µM [inhibitor, single point]	
COc1ccc2[nH]c3c(=O)n(CCCCC(=O)N4CCCC4)c(=S)[nH]c3c2c1	inconclusive: 35.5 µM [inhibitor, single point]	
O=C1C2CCCN2C(=O)N1CCCN1CCN(c2cccc(Cl)c2)CC1 (centres undefined)		inactive: -9.68%
Cc1ccc(S(=O)(=O)N(CC(=O)NCc2cccnc2)C2CCCCC2)cc1	inconclusive: 5.01 µM [inhibitor, partial curve, poor fit]	
COc1ccc(N2CCN(CC(=O)Nc3nnc(-c4ccccc4)s3)CC2)cc1		inactive: -17.6%
CCOC(=O)/C=c1\s/c(=C\c2ccc(-c3ccccc3)cc2)c(=O)n1CC(=O)NCc1ccc2c(c1)OCO2		inactive: 0.426%
O/N=C/c1ccn(-c2ccc(Br)cc2)c1	inconclusive: 35.5 µM [inhibitor, single point]	
CC(C)c1ccc(/C=C(\C#N)c2nc(-c3ccc(O)cc3)cs2)cc1	inconclusive: 35.5 µM [inhibitor, single point]	
COc1ccc(NC(=O)c2nnn(CC(=O)Nc3ccc4c(c3)OCO4)c2N)cc1OC		inactive: -0.604%
O=C(CSc1nc2c(c(=O)n1-c1ccccc1)SCC2)N1CCN(c2ccccc2)CC1		inactive: -5.24%
Cc1cc(C)c2nc(NC(=O)CN3C(=O)NC4(CCCC4)C3=O)sc2c1	inconclusive: 1.12 µM [inhibitor, partial curve, poor fit]	
FC(F)Oc1ccc(NC(=S)NCc2ccccc2)cc1Cl	inconclusive: 20 µM [inhibitor, single point]	
CCCCc1nc(NCCO)c(C#N)c2c1CCCC2	inconclusive: 12.6 µM [inhibitor, partial curve, poor fit]	
CCc1ccc(CCC(=O)Nc2ccc(OC)cc2)o1		inactive: 2.63%

Compound	Potency	activity, negative = inhibition
CN(C(=O)COC(=O)c1ccccc1C(=O)N1CCN(c2ccccc2)CC1)c1ccccc1		inactive: -0.359%
CN(C)c1ccc(N2C(=O)CC(c3ccccc3)CC2=O)cc1		inactive: 5.05%
Cc1ccc2ncnc(Oc3ncccc3[N+](=O)[O-])c2c1	inconclusive: 35.5 µM [inhibitor, single point]	
COc1ccc(C(=O)Nc2ccccc2C(=O)OCc2cc(=O)n3nc(C4CC4)sc3n2)cc1		inactive: 18.6%
Cc1ccc(C)c(N2CCN(C(=O)c3ccccc3Br)CC2)c1		inactive: -15.2%
Cc1ccc(C(=O)NN2C(=O)/C(=C/c3cccn3C)SC2=S)cc1		inactive: 8.18%
Cc1ccc(C2=NNC(=O)C(c3ccc(Cl)cc3)C2)cc1 (centres undefined)		inactive: 11.1%
CCC(C)c1ccc(S(=O)(=O)N2CCN(C(=O)c3ccc(Cl)c(S(=O)(=O)N4CCOCC4)c3)CC2)cc1 (centres undefined)	inconclusive: 10 µM [inhibitor, partial curve, poor fit]	
O=c1[nH]n(CCO)c(=O)c2cccnc12		inactive: -1.41%
Cn1ncc(C#N)c1/N=C/N(Cc1ccccc1)Cc1ccccc1		inactive: -11.7%
CCCCNc1nc2ccccc2n1CC(=O)N1CCc2ccccc2C1	inconclusive: 12.6 µM [inhibitor, partial curve]	
CCC(=O)N(Cc1ccco1)c1nc(C(=O)Nc2ccc(Cl)cc2)c(C)s1	inconclusive: 25.1 µM [inhibitor, single point]	
O=C(NC1CC(=O)N(c2ccccc2)C1)c1ccc(S(=O)(=O)N2CCCC2)cc1 (centres undefined)	inconclusive: 5.62 µM [inhibitor, full curve]	
CC1(C)N=C(N)N=C(N)N1c1ccc(CCCCc2ccccc2)cc1	inconclusive: 35.5 µM [inhibitor, single point]	
O=C(COc1cc(F)ccc1[N+](=O)[O-])NCCCc1ccccc1	inconclusive: 7.08 µM [inhibitor, full curve, poor fit]	
COc1cc(-c2nnc(COc3ccc4ccccc4c3)o2)cc(OC)c1OC		inactive: 3.81%
O=C(OCc1ccccc1)C1=[N+]([O-])OC(C(=O)OCc2ccccc2)C1c1c[nH]c2ccccc12 (centres undefined)	inconclusive: 35.5 µM [inhibitor, single point]	
CCOc1cc(C(=O)NCC(=O)N/N=C/c2sccc2C)cc(OCC)c1OCC		inactive: 7.72%
COc1cccc(NC(=O)CSc2nnc(NC(=O)c3ccco3)s2)c1		inactive: -18.4%
COc1ccccc1N1CCN(C(=O)C(Sc2ccccc2)c2ccccc2)CC1 (centres undefined)	inconclusive: 25.1 µM [inhibitor, single point]	
O=c1c2cc(Cl)ccc2[nH]c(=S)n1Cc1ccccn1	inconclusive: 12.6 µM [inhibitor, single point]	
COc1cc(OC)c(NC(=O)CSc2cc(=O)n(C)c3ccc(Cl)cc23)cc1Cl		inactive: -0.034%
CCc1ccc(NC(=O)CC2C(=O)N(c3ccc(Cl)cc3)C(=O)N2C2CCCC2)cc1 (centres undefined)	inconclusive: 14.1 µM [inhibitor, single point]	

Compound	Potency	activity, negative = inhibition
OC1CCN(c2c3c(nc4cc(-c5ccc(Cl)cc5)nn24)CCC3)CC1	inconclusive: 2.24 µM [inhibitor, partial curve, poor fit]	
CS(=O)(=O)c1ccc(C(=O)OCC(=O)N2CCN(CCC3CCCCC3)CC2)cc1[N+](=O)[O-]	active: 3.98 µM	
O=C(O)CCCNS(=O)(=O)c1ccc2c(c1)OCCCO2	inconclusive: 0.562 µM [inhibitor, partial curve, poor fit]	
C/C(CC(C)C)=N\Nc1ccc(S(N)(=O)=O)cc1[N+](=O)[O-]	inconclusive: 12.6 µM [inhibitor, single point]	
OCCN1CCN(Cc2cc(Cl)c3cccnc3c2O)CC1	inconclusive: 3.16 µM [inhibitor, partial curve]	
CCOc1ccc(/C=N/n2c(C3CCCCC3)n[nH]c2=S)cc1	inconclusive: 28.2 µM [inhibitor, single point]	
O=C(NCc1ccco1)c1ccc2c(c1)N(Cc1cccc(Cl)c1)C(=O)c1ccccc1S2=O (centres undefined)		inactive: -3.68%
CCCCCCSc1ccc(-c2nc3ccccn3c2NCCCC)cc1	inconclusive: 31.6 µM [inhibitor, single point]	
O=C(c1ccc(S(=O)(=O)N2CCOCC2)cc1)N(c1cccc(Cl)c1)C1C=CS(=O)(=O)C1 (centres undefined)	inconclusive: 12.6 µM [inhibitor, single point]	
CCn1ccc(C(=O)NC2C(=O)N3C(C(=O)O)=C(C)CSC23)n1 (centres undefined)	inconclusive: 35.5 µM [inhibitor, single point]	
COc1ccc(NC(=O)CN(C)C(=O)c2cccc(S(=O)(=O)Nc3ccc(F)cc3)c2)cc1	inconclusive: 10 µM [inhibitor, partial curve, poor fit]	
CCc1ccc(-c2nc(CSCC(=O)NCc3ccc(C)cc3)c(C)o2)cc1	inconclusive: 14.1 µM [inhibitor, single point]	
COc1ccc(CN2CCN(S(=O)(=O)c3ccc(NC(C)=O)cc3)CC2)c(OC)c1OC	inconclusive: 22.4 µM [inhibitor, single point]	
Cc1ccc(C(=O)O)cc1NC(=S)NC(=O)c1ccc(-c2ccc(Cl)cc2)o1	inconclusive: 6.31 µM [inhibitor, full curve, poor fit]	
CCc1ccc(NC(=O)C2CCN(S(=O)(=O)c3ccc4c(c3)NC(=O)C(C)S4)CC2)cc1 (centres undefined)	inconclusive: 8.91 µM [inhibitor, partial curve, poor fit]	
CC(=O)c1cc2c(cc1N/C(=N/S(=O)(=O)c1ccc(F)cc1)c1ccccc1)OCO2	inconclusive: 2.82 µM [inhibitor, single point]	
Cc1ccc(-n2nnnc2SC(C)C(N)=O)c(C)c1 (centres undefined)		inactive: 18.3%
COc1ccc(-c2nc3c4ccccc4ccn3c2Cc2ccccc2C(F)(F)F)cc1OC	inconclusive: 12.6 µM [inhibitor, partial curve, poor fit]	
CCc1ccc(NC(=O)c2sc3nc(C)cc(C)c3c2NC(=O)c2ccccc2OC)cc1		inactive: 0.86%
CCN(CC)CCN(C(=O)CCS(=O)(=O)c1ccccc1)c1nc2cc(C)cc(C)c2s1	active: 15.8 µM	
Cc1cccn2c(=O)c(C=C(C#N)C#N)c(N3CCN(C)CC3)nc12		inactive: 14.7%
CCc1nc2c(cnn2-c2ccc(Cl)cc2)c(=O)n1-c1ccc(OC)cc1	inconclusive: 22.4 µM [inhibitor, single point]	
COc1ccc(C=CC(=O)c2ccc3cc(OC)c(OC)cc3c2)cc1OC	inconclusive: 17.8 µM [inhibitor, single point]	
